Results published in article PMC4336329 (PLoS ONE, 2015).
The campaign covered roughly 310,000 compounds. About 14,000 (4.5%) showed an effect of 50% or more. The effect is printed as a negative number. Some of the results follow.

The molecules below were run against human ether-à-go-go-related gene (hERG) potassium channel (human, UniProt Q12809) (assay: primary screen, population patch clamp on CHO cells stably expressing hERG).
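Further: peak tail current of the secondary pulse compared with the same well before compound.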

human ether-à-go-go-related gene (hERG) potassium channel, sequence (Q12809 whole entry, looked up): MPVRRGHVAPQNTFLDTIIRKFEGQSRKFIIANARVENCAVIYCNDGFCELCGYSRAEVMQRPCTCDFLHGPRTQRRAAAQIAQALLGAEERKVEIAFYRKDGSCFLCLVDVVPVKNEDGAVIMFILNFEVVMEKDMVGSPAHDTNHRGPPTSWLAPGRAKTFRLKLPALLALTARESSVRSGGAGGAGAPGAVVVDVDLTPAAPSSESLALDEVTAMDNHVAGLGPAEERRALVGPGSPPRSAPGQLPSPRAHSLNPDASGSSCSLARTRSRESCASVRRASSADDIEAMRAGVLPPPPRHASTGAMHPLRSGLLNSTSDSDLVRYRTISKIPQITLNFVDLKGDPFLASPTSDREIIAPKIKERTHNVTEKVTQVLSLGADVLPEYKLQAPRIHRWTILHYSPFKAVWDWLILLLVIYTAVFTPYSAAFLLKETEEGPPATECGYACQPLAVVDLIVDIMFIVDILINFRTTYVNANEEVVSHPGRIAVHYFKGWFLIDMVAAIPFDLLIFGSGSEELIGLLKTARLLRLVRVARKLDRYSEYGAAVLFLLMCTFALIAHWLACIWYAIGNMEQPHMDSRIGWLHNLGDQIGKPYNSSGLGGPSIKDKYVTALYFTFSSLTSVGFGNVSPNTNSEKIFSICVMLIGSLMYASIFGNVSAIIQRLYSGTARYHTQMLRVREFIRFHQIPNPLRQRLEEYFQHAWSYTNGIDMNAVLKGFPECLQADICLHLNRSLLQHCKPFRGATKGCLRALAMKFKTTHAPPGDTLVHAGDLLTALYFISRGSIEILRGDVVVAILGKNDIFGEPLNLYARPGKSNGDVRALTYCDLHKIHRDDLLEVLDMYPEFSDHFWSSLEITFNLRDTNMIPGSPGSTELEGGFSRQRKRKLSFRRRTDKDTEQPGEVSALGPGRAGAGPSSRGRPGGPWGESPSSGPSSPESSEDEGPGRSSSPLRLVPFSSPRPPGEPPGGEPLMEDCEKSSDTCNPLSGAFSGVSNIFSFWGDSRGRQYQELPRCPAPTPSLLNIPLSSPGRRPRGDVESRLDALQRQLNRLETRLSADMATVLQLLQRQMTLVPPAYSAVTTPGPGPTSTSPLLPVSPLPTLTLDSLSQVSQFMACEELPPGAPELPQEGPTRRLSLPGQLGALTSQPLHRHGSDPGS

Row | Compound | hERG current change (%, negative = inhibition) at 10uM [%]
1 | COC(=O)C1=C(c2cccc(OCc3ccccc3)c2)C[C@@H]2CC[C@H]1N2C(=O)NCCOc1ccccc1Cl | 5.83
2 | O=C1C2C3C=CC(C3)C2C(=O)N1CC1CCCO1 (centres unmarked) | 21.7
3 | CCC(=O)Nc1nc(C)c(C(=O)N2CCCCC2)s1 | 12.4
4 | O=C(Nc1ccccc1)Nn1cnnc1 | 19.5
5 | O=C(Nc1ccccc1)OCCOc1ccc(Br)cc1 | 30.3
6 | O=C(N/N=C/c1cc([N+](=O)[O-])cc(Br)c1O)C12CC3CCC(CC(C3)C1)C2 | 2.01
7 | CO/N=C/c1ccc(OC)c(Oc2nc(OC)cc(OC)n2)c1 | 9.21
8 | COc1ccccc1-c1nc(-c2ccncc2)no1 | 4.28
9 | Cc1cc(=O)c(C(=O)Nc2cccc(N3CCCC3=O)c2)nn1-c1ccccc1F | -16.8
10 | O=c1[nH]cnc2c1sc(=S)n2-c1ccccc1 | 1
11 | CN(C(=S)NCCN1CCOCC1)C(c1ccccc1)c1ccccc1 | -36.5
12 | CCCCNC(=S)NNC(=O)c1csc(C)c1CC | 23.8
13 | COc1ccc(NC(=O)c2cccn(CC=C(C)C)c2=O)cc1 | -4.72
14 | O=C(CO/N=C/c1ccccc1)Nc1c(F)c(F)c(F)c(F)c1F | -9.64
15 | COc1cccc(NC(=S)N2CCN(C(c3ccccc3)c3ccccc3)CC2)c1 | -3.08
16 | CCOc1ccc(S(=O)(=O)N(CC(=O)NCc2cccnc2)c2ccc(F)cc2)cc1 | -72.5
17 | Cn1c(N)c(C(=O)COC(=O)c2cncc(Br)c2)c(=O)n(C)c1=O | -10.2
18 | CCOC(=O)C1=C(C)NC2=C(C(=O)OC2)C1c1ccccc1 (centres unmarked) | 3.65
19 | O=C(N/N=C/c1ccc(Br)cc1)c1ccc(Br)o1 | 5.79
20 | CCOC(=O)N=S(N)(=O)c1ccc(Cl)cc1 (centres unmarked) | 7.53
21 | Cc1cccn2c(=O)c(C=O)c(N3CCN(c4ccc(F)cc4)CC3)nc12 | -22.1
22 | Cc1ccc(C(NC(=O)C2CCCCC2)c2c(O)ccc3ccccc23)cc1 (centres unmarked) | -4.41

Row | Compound | hERG current change (%, negative = inhibition) at 10uM [%]
23 | O=C1[C@H]2[C@H](C=CC[C@H]2C(=O)N2CCN(c3ccccc3)CC2)CCN1Cc1ccc(Cl)c(Cl)c1 | -32.5
24 | CC(=O)c1cccc(NC(=O)CN2C(=O)c3cccnc3Oc3ccc(Cl)cc32)c1 | 3.6
25 | Cc1cc(=O)oc(C)c1C(=O)OCC(=O)c1ccc(Br)cc1 | -10.3
26 | Br.CCN(CC)S(=O)(=O)c1cccc(-c2nc3n(n2)Cc2ccccc2-3)c1 | -18.7
27 | C=CCOc1c(Br)cc(CNc2ccc(NC(=O)CCC)cc2)cc1OCC | 5.43
28 | COc1ccc(CN2CCN(C(=O)c3cc(OC)c(OC)c(OC)c3)CC2)cc1OC | 10.4
29 | CCCNc1oc(-c2cccc3ccccc23)nc1C#N | 5.06
30 | COc1ccc2[nH]c(=O)c(CN(c3ccccc3)S(=O)(=O)c3ccccc3)cc2c1 | 11.2
31 | CC(C)(C)C(=O)Cn1ncc(NC2CC2)c(Br)c1=O | 3.04
32 | CS(=O)(=O)N(Cc1ccccc1)c1ccc(C(=O)NCCSCc2ccco2)cc1 | -18
33 | COC(=O)c1cc(C#N)c(Oc2ccc(OC)cc2)nc1C | -23.7
34 | O=C1CC(NC(=O)c2ccc(Cl)cc2)C(=O)N1 (centres unmarked) | 14.8
35 | O=C(CSc1nnc(-c2cccnc2)n1-c1ccccc1)Nc1ccccc1 | -76.3
36 | Cc1cccc(/C=C2/SC(=O)N(Cc3ccccc3)C2=O)n1 | 1.77
37 | O=C(O)CSc1nnc(Cc2ccccc2)n1Cc1ccccc1 | -7.15
38 | CC(=O)N1c2ccc(S(=O)(=O)NCc3ccccc3Cl)cc2CC1C (centres unmarked) | -17.2
39 | CN(CC(=O)Nc1ccc(F)cc1)C(=O)COC(=O)CN1C(=O)NC2(CCCC2)C1=O | 24.5
40 | ONC(=Nc1ccccc1Cl)c1ccccc1Cl | -14
41 | COc1ccc(N(C(C)C(=O)N/N=C/c2cccnc2)S(C)(=O)=O)cc1 (centres unmarked) | -3.44
42 | COC(=O)Nc1nc(-c2cc(Cl)ccc2Cl)cs1 | 13.7
43 | CCN1CCN(CCCNc2ncnc3nc[nH]c23)CC1 | -16.1
44 | CCOC(=O)C1CCCN(C(=O)c2ccc3nc(-c4ccc(OC)c(OC)c4)c(-c4ccc(OC)c(OC)c4)nc3c2)C1 (centres unmarked) | -5.45
